# Hit rate of the full screen: of about 310,000 compounds, about 14,000 (4.5%) showed an effect of 50% or more. Effects have a minus sign here. The list shows a part of the results.
# Molecular target: human ether-à-go-go-related gene (hERG) potassium channel (human, UniProt Q12809)
# Assay: primary screen, population patch clamp on CHO cells stably expressing hERG
# 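Note: peak tail current of the secondary pulse compared with the same well before compound.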
# Sequence of human ether-à-go-go-related gene (hERG) potassium channel (Q12809 whole entry, looked up): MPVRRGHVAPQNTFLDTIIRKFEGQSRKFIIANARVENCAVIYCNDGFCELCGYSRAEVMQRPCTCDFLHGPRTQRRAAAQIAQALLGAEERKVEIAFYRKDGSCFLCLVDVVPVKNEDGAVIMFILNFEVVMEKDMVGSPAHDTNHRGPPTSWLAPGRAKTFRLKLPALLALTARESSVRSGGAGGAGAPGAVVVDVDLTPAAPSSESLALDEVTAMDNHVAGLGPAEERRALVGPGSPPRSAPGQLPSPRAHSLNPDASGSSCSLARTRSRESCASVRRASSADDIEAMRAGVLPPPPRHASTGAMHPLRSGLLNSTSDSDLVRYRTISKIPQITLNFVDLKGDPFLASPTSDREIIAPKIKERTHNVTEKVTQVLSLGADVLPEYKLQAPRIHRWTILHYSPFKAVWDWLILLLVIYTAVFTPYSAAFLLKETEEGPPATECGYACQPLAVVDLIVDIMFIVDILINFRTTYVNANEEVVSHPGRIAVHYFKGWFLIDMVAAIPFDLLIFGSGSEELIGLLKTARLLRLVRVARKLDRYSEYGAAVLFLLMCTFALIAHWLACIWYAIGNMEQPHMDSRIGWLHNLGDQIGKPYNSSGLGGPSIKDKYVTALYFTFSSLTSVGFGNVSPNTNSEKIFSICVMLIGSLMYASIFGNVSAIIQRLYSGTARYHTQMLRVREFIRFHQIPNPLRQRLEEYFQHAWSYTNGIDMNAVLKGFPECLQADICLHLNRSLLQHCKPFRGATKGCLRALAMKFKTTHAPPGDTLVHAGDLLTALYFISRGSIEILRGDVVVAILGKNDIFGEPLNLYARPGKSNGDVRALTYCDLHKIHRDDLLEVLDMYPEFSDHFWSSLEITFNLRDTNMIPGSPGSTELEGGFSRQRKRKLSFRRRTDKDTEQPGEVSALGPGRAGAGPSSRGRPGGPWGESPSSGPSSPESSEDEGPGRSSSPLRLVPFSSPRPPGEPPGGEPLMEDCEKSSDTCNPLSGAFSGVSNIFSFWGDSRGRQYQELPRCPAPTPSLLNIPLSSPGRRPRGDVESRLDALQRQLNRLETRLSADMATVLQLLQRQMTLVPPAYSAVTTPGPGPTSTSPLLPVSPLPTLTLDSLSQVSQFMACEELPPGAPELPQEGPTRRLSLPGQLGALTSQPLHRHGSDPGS
row,Structure (SMILES),"hERG current change (%, negative = inhibition) at 10uM"
1,Cc1ccc(O)c(C(=O)c2cnc3c(c2)c(=O)n(C)c(=O)n3C)c1,9.19%
2,Cc1cccc(C)c1NC(=O)C[n+]1cc(-c2ccccc2)n2c1CCC2.[Cl-],11.3%
3,Cc1ccc(CNC(=O)C(=O)NCC2OCCN2S(=O)(=O)c2ccc(Br)cc2)cc1 (centres unmarked),4.4%
4,COc1cccc(NC(=O)Cn2c(=O)c3c(ncn3Cc3ccccc3)n(Cc3ccccc3)c2=O)c1,-0.187%
5,Cc1ccc(N2CC(C(=O)NC3=NCCS3)CC2=O)cc1C (centres unmarked),0.808%
6,Cc1ccc(-c2nnc(OCc3nc4ccccc4n3C)c3ccccc23)cc1,-12%
7,O=C(N/N=C/c1cn(-c2cccs2)nc1-c1ccccc1)c1ccccc1Br,7.79%
8,C#CC1(NC(=O)NC(=O)c2c(F)cccc2F)CCCCC1,8.83%
9,O=C(Nc1ccncc1)c1cccc(S(=O)(=O)N2CCOCC2)c1,-58.4%
10,Cc1cc(NC(=O)c2sccc2C)n(-c2nc3ccccc3[nH]2)n1,19.7%
11,COC(=O)c1ccc(C2c3[nH]c4ccccc4c3C[C@H]3C(=O)N(C4CCN(Cc5ccccc5)CC4)CC(=O)N23)cc1 (some centres unmarked),-10%
12,CCCOc1cccc(-c2nnc(N)s2)c1,0.334%
13,CC(Oc1ccc2c3c(c(=O)oc2c1)CCC3)C(=O)NCc1ccccn1 (centres unmarked),6.35%
14,Cc1cc(NC(=O)c2ccc(S(=O)(=O)N(C)C)cc2)no1,15.5%
15,CCCc1cc(N2CCCC(C(=O)NCC)C2)n2ncnc2n1 (centres unmarked),-27.3%
16,COc1ccc(NC(=O)c2c(-c3ccccc3)noc2C)c(OC)c1,-7.61%
17,COC(=O)/C=C1\S/C(=N\N=C\CC(=O)OC)NC1=O,10.2%
18,CCOc1ccc(NC(=O)c2cc3cc4ccc(OC)cc4nc3o2)cc1,17.6%
19,CCOc1ccccc1NC(=S)NCCc1ccccc1,4.14%
20,COc1cccc(NC(=O)NCc2ccccc2F)c1,0.0831%
21,CCOC(=O)c1nnc(-c2ccc(C)cc2)nc1Sc1ccc(Cl)cc1,4.36%
22,Cc1ccc2c(c1)C1CCCC3C1N2CC(=O)N3Cc1ccccc1 (centres unmarked),11.1%

row,Structure (SMILES),"hERG current change (%, negative = inhibition) at 10uM"
1,O=C(NC1CC2CCCC(C1)N2C(=O)N1CCCCC1)C1CCCCC1 (centres unmarked),-12.1%
2,O=[N+]([O-])c1ccc(N2CCN(c3ccc(O)cc3)CC2)c(Cl)c1,-3.4%
3,O=C(CSc1nnc(C2CC2)n1-c1ccccc1)N1CCNC1=O,8.84%
4,O=S(=O)(c1ccc(Cl)s1)N1CCN(C/C=C/c2ccccc2)CC1,-18.5%
5,O=C(Nc1ccc(F)cc1)N1CCN(c2ccc3nnc(-c4ccc(F)cc4)n3n2)CC1,-73.5%
6,CCCCn1c(N)c(N(CC(C)C)C(=O)C2CCCN(C(=O)c3ccc(Cl)cc3)C2)c(=O)[nH]c1=O (centres unmarked),17.6%
7,COc1ccc(-n2nnnc2-c2ccccc2)cc1,-0.233%
8,COc1cc(/C=C2\C(=O)NC(=O)N(CCc3ccc(F)cc3)C2=O)ccc1O,17.7%
9,CCOc1cc(C(=O)Nc2ccc3c4c(cccc24)C(=O)N3CC)cc(OCC)c1OCC,-5.15%
10,Cc1ccc(CNS(=O)(=O)c2ccc(CN3C(=O)c4cccnc4C3=O)cc2)o1,4.85%
11,COC(=O)c1ccc(NC(=O)CN2CCN(S(=O)(=O)c3cc(Cl)ccc3OC)CC2)cc1,-19.3%
12,COc1ccc(CN(C)C(=O)c2ccccc2Sc2ccccc2C#N)c(OC)c1,0.887%
13,COc1ccc(C(=O)Nc2cc3c4c(c2)CC(=O)N4CCC3)cc1,-12.8%
14,CCOC(=O)CCCNC(=O)COC(=O)c1ccc(O)cc1,5.64%
15,COc1ccc(NC(=O)CN2C(=O)COc3ccc(C)cc32)cc1,13.5%
16,O=C(Nc1cccc(Br)c1)c1ccn[nH]1,-1.32%
17,CC(C)(C)CC(=O)Nc1nnc(SCC(=O)NCc2cccs2)s1,35.2%
18,CC(C)c1ccc(CN2CCSCC2)cc1,1.69%
19,COc1ccc(N2C(=O)CC(Sc3nnc(-c4ccccc4)o3)C2=O)cc1 (centres unmarked),-22%
20,CCCC(=O)Nc1ccc(S(=O)(=O)N2CCCC2)cc1,-2.63%
21,Cc1c(C(=O)O)oc2ccc(S(=O)(=O)NC3CCCCCCC3)cc12,15.3%
22,C/C(Cl)=C\C[N+](C)(C)CC(=O)OCCc1ccccc1.[Br-],-1.63%

# Source: paper PMC4336329 (PLoS ONE, 2015)
